Reference: US11365205B2 (Aurigene Discovery Technologies Limited, priority 2018, dated 2022)

Molecular target: PRMT5/MEP50 Complex (Homo sapiens (Human), UniProt O14744)
Assay: PRMT5 inhibition based on TR-FRET assay
Format: biochemical
Conditions: 32 nM PRMT5:MEP50, 50 nM Histone-H4 peptide, 1 μM SAM
Description: PRMT5 Inhibition Based on TR-FRET Assay:
Protein arginine methyltransferase 5 (PRMT5) is a type II arginine methyltransferase that catalyze mono- and symmetric demethylation on arginine residues of histone or non-histone proteins in presence of S-adenosylmethionine (AdoMet or SAM) a cofactor responsible for donating the methyl group. PRMT5 is reported to be overexpressed in several human cancers. To identify compounds that inhibit the PRMT5 and decrease its activity, a TR-FRET based assay has been established. Time-resolved fluorescence resonance energy transfer (TR-FRET) HTS assays are homogeneous proximity assays where the interaction of two dye-labeled binding partners is detected by the energy transfer between a donor and an acceptor dye and the subsequent light emission by the acceptor dye. PRMT5 catalyzes Histone H4 peptide which is biotin tagged to the Lysine amino acid at carboxyl end, in presence of S-adenosyl-1-methionine (SAM) to methylate the peptide. The antibody specific to mono methylated H4 peptide (H4R3) with Ig conjugate binds to the methylated peptide, indirectly binding to the Europium lanthanide. […]
The compound dilutions were prepared as 7.5% DMSO stock solutions in assay buffer. […] The plates were then read on Victor-3 with Excitation at 340 nm and Emissions collected at 615 and 665 nm in TR-FRET protocol. […]

Chain of UniProt O14744 (O14744 whole entry): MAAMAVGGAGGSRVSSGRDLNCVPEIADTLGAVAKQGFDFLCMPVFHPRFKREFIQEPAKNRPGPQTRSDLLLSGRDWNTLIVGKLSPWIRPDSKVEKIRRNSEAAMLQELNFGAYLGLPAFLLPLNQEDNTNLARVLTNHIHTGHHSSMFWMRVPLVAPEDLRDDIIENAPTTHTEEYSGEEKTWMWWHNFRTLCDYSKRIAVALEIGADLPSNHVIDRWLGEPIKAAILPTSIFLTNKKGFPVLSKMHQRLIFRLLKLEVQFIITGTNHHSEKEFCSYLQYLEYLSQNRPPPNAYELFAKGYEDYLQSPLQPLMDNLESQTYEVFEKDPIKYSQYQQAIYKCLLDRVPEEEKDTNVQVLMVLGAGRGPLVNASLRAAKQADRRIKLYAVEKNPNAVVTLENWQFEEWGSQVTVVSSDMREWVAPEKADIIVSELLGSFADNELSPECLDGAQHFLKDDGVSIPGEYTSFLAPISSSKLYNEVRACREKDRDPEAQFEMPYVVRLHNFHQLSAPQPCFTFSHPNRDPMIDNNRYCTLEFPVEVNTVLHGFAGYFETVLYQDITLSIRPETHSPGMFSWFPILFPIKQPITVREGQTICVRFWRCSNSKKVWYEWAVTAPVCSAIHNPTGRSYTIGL
Chain of UniProt O14744 (Q9BQA1 whole entry partner): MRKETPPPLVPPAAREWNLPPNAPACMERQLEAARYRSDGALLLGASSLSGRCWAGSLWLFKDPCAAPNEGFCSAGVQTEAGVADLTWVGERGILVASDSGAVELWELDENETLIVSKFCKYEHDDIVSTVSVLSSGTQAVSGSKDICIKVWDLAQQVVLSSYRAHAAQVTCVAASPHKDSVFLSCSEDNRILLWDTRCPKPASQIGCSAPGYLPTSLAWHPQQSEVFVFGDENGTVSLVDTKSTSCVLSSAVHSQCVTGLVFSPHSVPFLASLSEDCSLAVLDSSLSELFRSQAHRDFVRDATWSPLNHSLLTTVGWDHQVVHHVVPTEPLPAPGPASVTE

IC50 [nM]	Structure (SMILES)
370	N#Cc1cc(CN2CCN(CC(O)CN3CCc4ccccc4C3)C2=O)ccn1 (centres unmarked) [Example 42]
590	NC(=O)c1ccc(CN2CCN(CC(O)CN3CCc4ccccc4C3)C2=O)cc1 (centres unmarked) [Example 47, 4-((3-(3-(3,4-dihydroisoquinolin-2(1H)-yl)-2-hydroxypropyl)-2-oxoimidazolidin-1-yl)methyl)benzamide]
